# Screen size: about 320,000 compounds; about 7,600 (2.4%) were called active. This list was built around the results that the source calls inconclusive (neither active nor inactive); the mix of calls is not that of the screen. Calls come from the whole dose curve; as a rule, active = well fitted activation curve with a large enough effect; inconclusive = small, poorly fitted or top-dose-only effect; inactive = no such curve, though single readings can be large or run the other way. Potencies of inconclusive entries are left out as doubtful fits.
# Assay: qHTS Assay for NPC1 Promoter Activators; note: nearly all actives have a fitted effect of over 60% in size;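 for activation: reporter is driven by a mutant NPC1 promoter; % of control where 0% means no effect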
# Settings: Huh7 NPC1 promoter luciferase reporter, 24 h; series mostly up to 9.22 µM; activation: at the top concentration
# In short: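 Compounds in DMSO were transferred onto Huh7 NPC1-luciferase reporter cells pre-incubated 2 h; after 24 h at 37 °C, Amplite reagent was dispensed and luminescence recorded 10 min later.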
# Potency is the fitted concentration of half-maximal effect; tags give direction and shape of the fitted curve.
SMILES,activation,Potency
O=C(CSc1ccccc1C(=O)O)NC1CCCCCC1,inactive: -3.18%,–
C=CCN(C(=O)c1csnn1)C(C(=O)NC1CCCC1)c1c(F)cccc1Cl (stereo not given),inactive: 2.59%,–
Cn1c(SCc2cccc(F)c2)nnc1-c1ccccn1,–,"inconclusive [activator, single point]"
CCOc1ccc(-c2nnc3ccc(SCC(=O)Nc4nc5ccccc5s4)nn23)cc1,inactive: -0.328%,–
Cc1ccc(Cl)cc1N1CCN(C(=O)C(C)n2ncn3cccc3c2=O)CC1 (stereo not given),inactive: 1.98%,–
Nc1ccccc1NC(=O)NC(=O)c1ccccc1,–,"inconclusive [activator, partial curve]"
Cc1cccc(C(=O)NNC(=O)c2ccc(Cl)cc2)c1O,–,"inconclusive [activator, partial curve]"
CCCn1nnc(NC(=O)c2ccccc2Cl)n1,–,"inconclusive [activator, partial curve]"
COc1ccccc1NC(=O)Nc1ccc(-n2ccc(C(F)(F)F)n2)cc1,–,"inconclusive [activator, partial curve]"
COc1ccc(C(=O)Nc2nc3ccccc3s2)c(OC)c1,–,"inconclusive [activator, partial curve]"
CC1=CN2C(=N)/C(=C/c3ccc(C)o3)C(=O)N=C2S1,–,active: 1.58 µM
Clc1cccc(CSc2nc3ccncc3[nH]2)c1,inactive: 22.4%,–
CCOc1ccccc1C(=O)NCC(=O)N1CCN(Cc2ccc3c(c2)OCO3)CC1,inactive: -2.77%,–
CCCc1ccc2oc(C(=O)N(C)Cc3ccn[nH]3)c(C)c2c1,–,"inconclusive [activator, partial curve]"
c1ccc(CSc2nc3ncccn3n2)cc1,–,"inconclusive [activator, single point]"
CCOC(=O)C1CCCN(C(=O)c2cc(-c3ccc(C)cc3)on2)C1 (stereo not given),–,"inconclusive [activator, single point]"
CC1=CC(=O)c2c(O)ccc(O)c2C1=O,inactive: -44.1%,–
COCCNc1oc(-c2ccc(C)cc2)nc1C#N,–,"inconclusive [activator, single point]"
COc1ccc(CCNC(=O)CCCN2C(=O)C(c3ccccc3)Oc3cccnc32)cc1OC (stereo not given),inactive: -5.85%,–
CC1=NN(c2ccccc2)C(=O)/C1=C/c1cc2cc(C)ccc2nc1N1CCCCC1,–,"inconclusive [activator, partial curve]"

SMILES,activation,Potency
O=S(=O)(Nc1ccc(-n2cnnn2)cc1)c1ccc(Cl)cc1,inactive: -2.86%,–
Cc1ccc(CSc2nc3ccncc3[nH]2)cc1,–,"inconclusive [activator, full curve, poor fit]"
CC(=O)Nc1ccc2c(c1)CCc1ccccc1-2,–,"inconclusive [activator, partial curve]"
O=C(N=Nc1ccc(NOC(=O)c2ccccc2Br)cc1)c1ccccc1O,–,"inconclusive [activator, partial curve]"
CCOc1ccc2oc(C(=O)Nc3ccc4c(c3)OCO4)c(C)c2c1,–,active: 3.16 µM
CSc1ccccc1-c1nnc(-c2ccc(C)cc2)o1,–,"inconclusive [activator, single point]"
CCSc1ccccc1-c1nc(-c2ccncc2)no1,–,"inconclusive [activator, single point]"
CCOC(=O)c1sc(Nc2ccccc2Cl)nc1C,–,"inconclusive [activator, single point]"
CCc1nnc(NS(=O)(=O)c2ccc(N/C=C/C(=O)c3ccc(OC)cc3)cc2)s1,inactive: 6.85%,–
O=C(NC(=S)Nc1nc2ccccc2s1)c1ccco1,–,"inconclusive [activator, single point]"
CC(C)c1ccc(/C=N/N2CCN(c3ccccn3)CC2)cc1,–,"inconclusive [activator, single point]"
CC1(C)CC(=O)C=C(c2ccc(Oc3ccccc3)cc2)C1,–,"inconclusive [activator, single point]"
COc1ccccc1NC(=O)Nc1ccc2c(c1)nnn2C,–,"inconclusive [activator, partial curve]"
Cc1ccc(-n2ncc(Cl)c2C(=O)NC2CC2)cc1,–,active: 3.16 µM
Cc1cc(C(=O)O)ccc1N=Cc1c(O)ccc2ccccc12,inactive: 9.76%,–
COc1cc(/C=N/NC(=O)c2ccccn2)ccc1OC(=O)c1cccs1,–,"inconclusive [activator, single point]"
O=C(c1cc(-c2ccccc2Cl)nc2ccccc12)N1CCC1,inactive: -8.21%,–
c1ccc(C2Nc3cccc4cccc(c34)N2)cc1,–,"inconclusive [activator, single point]"
O=C(Nc1ccc2nc(C3CC3)n(Cc3ccccc3)c(=O)c2c1)C1CC1,–,active: 2.82 µM
Cc1cc(C)cc(NC2=C(N)C(=O)c3ccccc3C2=O)c1,–,"inconclusive [activator, single point]"

# — PubChem BioAssay AID485313 (National Center for Advancing Translational Sciences (NCATS), 2010)
